According to patent US11285169B2, “Methods for modulating chemotherapeutic cytotoxicity” (The United States of America, as represented by the …, priority 2013, dated 2022):
Structures can show the parent of a compound that is named as a salt. Where two headings read alike, the source gives them in different places.

How the values were obtained:
[1] = test system: CD47 deficient (CD47 KO) Jurkat T cells; conditions: for AC50: read-out: AC50 (μM) CD47 KO, cell viability
WT Jurkat cells = conditions: for AC50: read-out: AC50 (μM) WT
[2] = CD47 KO Jurkat T cells, 48 hours, 10^-9 to 10^-4 M, CellTiter-Glo
[3] = difference CD47 KO minus WT Jurkat cells, 48 hours
[4] = WT Jurkat cells, 48 hours, 10^-9 to 10^-4 M, CellTiter-Glo
[5] = CD47 KO Jurkat T cells, 48 hours

Compound	Maximal Response CD47 KO (RLU) [1, 2]	Δ Maximal Response CD47KO-WT [1, 3]	Maximal Response WT (RLU) (WT Jurkat cells; [4])	also measured
CN(C)CCCN=c1c2ccccc2n(C)c2[nH]c(=O)n(C)c(=O)c12 [HLI-373989]	27.558 RLU	26.028	1.53 RLU	–
Nc1cccc(-c2cc3c(Oc4cccc(O)c4)ncnc3[nH]2)c1 [TWS-119]	41.471 RLU	26.215	15.256 RLU	–
CC(=O)CC(c1ccccc1)c1c(O)c2ccccc2oc1=O (centres unmarked) [Warfarin sodium]	121.897 RLU	–	100.275 RLU	–
CO[C@@]12[C@H](COC(N)=O)C3=C(C(=O)C(C)=C(N)C3=O)N1C[C@@H]1N[C@@H]12 [Mitomycin]	25.245 RLU	–	1.358 RLU	–
C[C@H]1c2cccc(O)c2C(=O)C2=C(O)[C@]3(O)C(=O)C(C(N)=O)=C(O)[C@@H](N(C)C)[C@@H]3[C@@H](O)[C@@H]21 [Doxycycline]	47.095 RLU	–	19.309 RLU	–
Cc1ccc(C(=O)c2cc(O)c(O)c([N+](=O)[O-])c2)cc1 [Tolcapone]	72.927 RLU	–	36.753 RLU	–
Bleomycin sulfate	–	–	–	Maximal Response CD47 KO (RLU) [1]: 76.042 RLU; Δ Maximal Response CD47KO-WT [1]: 57.606; sensitivity of CD47-expressing versus deficient Jurkat T cells ([1]; 48 hours): differing sensitivities; Maximal Response WT (RLU) (WT Jurkat cells): 18.436 RLU
C[C@@]1(C(=O)Nc2ccc(F)nc2)CCCN1c1nc(Nc2cc(C3CC3)n[nH]2)c2cccn2n1 [BMS-754807]	82.867 RLU	–	47.422 RLU	–
Oc1cc(O)c(Cl)cn1 [Gimeracil]	106.453 RLU	–	83.034 RLU	–
CC(C)NCC(O)c1ccc(O)c(O)c1 (centres unmarked) [Isoprenaline hydrochloride]	53.781 RLU	–	7.997 RLU	–
Cc1ccccc1-n1c(Cn2cnc3c(N)ncnc32)nc2cccc(C)c2c1=O [IC-87114]	35.263 RLU	31.25	4.013 RLU	–
COc1cc2c(cc1Cc1cccc(Cl)c1F)c(=O)c(C(=O)O)cn2[C@H](CO)C(C)C [Elvitegravir]	44.755 RLU	–	12.72 RLU	–
Cn1cc(-c2ccc3ncc(Cc4ccc5ncccc5c4)n3n2)cn1 [NVP-BVU-972]	80.831 RLU	31.307	49.524 RLU	–
CCCCc1ncc(/C=C(\Cc2cccs2)C(=O)O)n1Cc1ccc(C(=O)O)cc1 [Eprosartan mesylate]	90.261 RLU	–	63.38 RLU	–
CN1N=C(N)c2cn([C@@H]3O[C@H](COP(=O)(O)O)[C@@H](O)[C@H]3O)c3ncnc1c23 [Triciribine phosphate]	80.607 RLU	–	52.513 RLU	–
CCCCC[C@H](O)/C=C/[C@H]1[C@H](O)CC(=O)[C@@H]1C/C=C\CCCC(=O)O [Prostaglandin E2]	68.744 RLU	27.046	41.698 RLU	–
O=C1Cc2cc(CCN3CCN(c4nsc5ccccc45)CC3)c(Cl)cc2N1 [Ziprasidone hydrochloride]	42.21 RLU	–	17.586 RLU	–
O=C(Nc1c[nH]nc1-c1nc2ccc(CN3CCOCC3)cc2[nH]1)NC1CC1 [AT-9283]	24.648 RLU	–	2.937 RLU	–
NC(=O)Nc1cc(-c2cccc(F)c2)sc1C(=O)N[C@H]1CCCNC1 [AZD-7762]	39.585 RLU	–	9.778 RLU	–
Clc1ccc2c(c1)C(N1CCNCC1)=Nc1ccccc1O2 [Amoxapine]	60.648 RLU	–	28.037 RLU	–
COc1cc2c(c(OC)c1OC)-c1ccc(OC)c(=O)cc1[C@@H](NC(C)=O)CC2 [Colchicine]	–	–	–	Maximal Response CD47 KO (RLU) [1]: 45.702 RLU; Maximal Response WT (RLU) (WT Jurkat cells): 9.264 RLU
CC(C)[C@]12O[C@H]1[C@@H]1O[C@]13[C@]1(O[C@H]1C[C@H]1C4=C(CC[C@@]13C)C(=O)OC4)[C@@H]2O [Triptolide]	65.405 RLU	–	5.613 RLU	–
Cc1cc(NC(=O)Nc2ccc(N(C)C)cc2)c2cc(F)cc(F)c2n1 [SB-408124]	50.614 RLU	27.547	23.067 RLU	–
COc1ccc(COc2cc3oc(=O)c4cc(C(C)O)ccc4c3cc2OC)cc1 (centres unmarked) [SG-00529]	39.325 RLU	–	14.623 RLU	–
CN[C@H]1CCc2cc(OC)c(OC)c(OC)c2-c2ccc(OC)c(=O)cc21 [Demecolcine]	–	–	–	Maximal Response CD47 KO (RLU) [1]: 39.703 RLU; Maximal Response WT (RLU) (WT Jurkat cells): 14.285 RLU

Compound	Maximal Response CD47 KO (RLU) [1, 2]	Δ Maximal Response CD47KO-WT [1, 3]	Maximal Response WT (RLU) (WT Jurkat cells; [4])	also measured
CC[C@H](Nc1ncnc2[nH]cnc12)c1nc2cccc(F)c2c(=O)n1-c1ccccc1 [CAL-101]	32.28 RLU	–	9.332 RLU	–
CN(Cc1cnc2nc(N)nc(N)c2n1)c1ccc(C(=O)N[C@@H](CCC(=O)O)C(=O)O)cc1 [Methotrexate]	54.169 RLU	–	9.002 RLU	–
CC(C)(C)c1cc(C=C(C#N)C#N)cc(Br)c1O [AG-1024]	55.705 RLU	34.12	21.585 RLU	–
CCOC(CN1C(=O)[C@](CC(=O)Nc2ccc(C)cc2)(NC(=O)Nc2ccc(C)cc2)c2ccccc21)OCC [AG-041R]	52.368 RLU	42.629	9.739 RLU	–
Nc1ccn([C@@H]2O[C@H](CO)[C@@H](O)[C@@H]2O)c(=O)n1 [Cytarabine]	50.088 RLU	–	6.781 RLU	maximal inhibition of viability, CD47-deficient versus WT Jurkat T cells (in words) ([1]; 48 hours): significantly decreased maximal inhibition of viability
Cc1cc(C(C)Nc2ccccc2)c2nc(N3CCOCC3)cc(=O)n2c1 (centres unmarked) [TGX-221]	40.352 RLU	22.41	17.942 RLU	–
O=C(O)[C@H]1O[C@@H](Oc2cc3oc(-c4ccccc4)cc(=O)c3c(O)c2O)[C@H](O)[C@@H](O)[C@@H]1O [Baicalin]	78.198 RLU	–	52.935 RLU	–
O=C(Nc1ccncc1)C(=O)c1cn(Cc2ccc(Cl)cc2)c2ccccc12 [Indibulin]	48.851 RLU	–	21.582 RLU	–
COc1cc(C2Oc3cc([C@H]4Oc5cc(O)cc(O)c5C(=O)[C@@H]4O)ccc3OC2CO)ccc1O (some centres unmarked) [Silybin]	40.999 RLU	–	13.77 RLU	–
CCCCCNC(=O)N1CCC(CN(Cc2ccc(Cl)cc2)Cc2ccc([N+](=O)[O-])s2)C1 (centres unmarked) [SR9011]	30.529 RLU	–	7.859 RLU	–
O=C(O)[C@]1(Cc2cccc(Nc3nccs3)n2)CC[C@@H](Oc2cccc(Cl)c2F)CC1 [MK-5108]	85 RLU	34.146	50.854 RLU	–
CC(C)(Oc1ccc(C2CC2(Cl)Cl)cc1)C(=O)O (centres unmarked) [Ciprofibrate]	94.451 RLU	–	12.532 RLU	–
O=c1c(-c2ccc(O)cc2)coc2cc(O[C@@H]3O[C@H](CO)[C@@H](O)[C@H](O)[C@H]3O)ccc12 [Daidzin]	–	–	–	Maximal Response CD47 KO (RLU) [1]: 144.949 RLU; Maximal Response WT (RLU) (WT Jurkat cells): 115.579 RLU
CN(C)CCCNC(=O)c1ccc(-c2cc(O)c3ncccc3c2)cc1 [NCGC00183808-01]	74.518 RLU	38.952	35.566 RLU	–
C/C(=N\NC(=S)N1CCC1)c1ccccn1 [NSC319726]	–	–	–	Maximal Response CD47 KO (RLU) [1]: 47.192 RLU; Δ Maximal Response CD47KO-WT [1]: 37.314; Maximal Response WT (RLU) (WT Jurkat cells): 9.878 RLU
C/C=C/C/C=C/CCC(=O)[C@H]1O[C@H]1C(N)=O [Cerulenin]	39.947 RLU	–	10.602 RLU	–
CC(C)[C@H](CO)Nc1nc(Nc2ccc(C(=O)O)c(Cl)c2)c2ncn(C(C)C)c2n1 [Purvalanol B]	–	–	–	Δ LogAC50 CD47KO-WT [1]: 0.55; AC50 [1, 5]: 52.6 µM; AC50 (WT Jurkat cells): 14.8 µM
CCC(=O)NC[C@H](Cc1ccc(OCCc2nc(-c3ccccc3)oc2C)cc1)N/C(C)=C\C(=O)c1ccc(C(F)(F)F)cc1 [GW-6471]	36.938 RLU	30.614	6.324 RLU	–
CCOc1ccc(Nc2nc(-c3c(C)nc4ccccn34)cs2)cc1 [JK 184]	39.212 RLU	25.61	13.602 RLU	–
CCc1cnn2c(NCc3ccc[n+]([O-])c3)cc(N3CCCC[C@H]3CCO)nc12 [Dinaciclib]	47.924 RLU	–	3.92 RLU	–
COc1ccc2ccc(=O)oc2c1CC=C(C)C [Osthol]	60.073 RLU	24.385	35.688 RLU	–
COCC1(CO)C(=O)C2CCN1CC2 (centres unmarked) [APR-246]	–	–	–	Δ LogAC50 CD47KO-WT ([1]; log AC50 difference CD47 KO minus WT): 1.05; AC50 [1, 5]: 16.6 µM; AC50 (WT Jurkat cells; WT Jurkat cells, cell viability, 48 hours): 1.48 µM
COC(=O)Nc1ccc(-c2nc(N3CCOCC3)c3cnn(C4CCN(C(=O)OC)CC4)c3n2)cc1 [WYE-354]	31.102 RLU	28.66	2.442 RLU	–
O=C(NCc1ccncc1)C12CC3CC(C1)CC(c1ccc(Cl)cc1)(C3)C2 [ABC-294640]	32.778 RLU	–	8.808 RLU	–
O=C(O)CCCc1ccc(N(CCCl)CCCl)cc1 [Chlorambucil]	–	–	–	Maximal Response CD47 KO (RLU) [1]: 92.524 RLU; sensitivity of CD47-expressing versus deficient Jurkat T cells ([1]; 48 hours): differing sensitivities; Maximal Response WT (RLU) (WT Jurkat cells): 16.98 RLU
